In all, about 33,000 sequences were measured (“E-score (-0.5 to 0.5)”: median about -0.012, highest 2% from about 0.29 on). This is one part of the list.
molecular target: T1, Ybr033w (UniProt P38073); assay: PBM E-score (8-mer binding enrichment) (E-score (-0.5 to 0.5)); higher = stronger / more preferred TF binding; most listed sequences are background and not binding sites; conditions: protein concentration: 200 nM; construct: GST-full length
T1 sequence: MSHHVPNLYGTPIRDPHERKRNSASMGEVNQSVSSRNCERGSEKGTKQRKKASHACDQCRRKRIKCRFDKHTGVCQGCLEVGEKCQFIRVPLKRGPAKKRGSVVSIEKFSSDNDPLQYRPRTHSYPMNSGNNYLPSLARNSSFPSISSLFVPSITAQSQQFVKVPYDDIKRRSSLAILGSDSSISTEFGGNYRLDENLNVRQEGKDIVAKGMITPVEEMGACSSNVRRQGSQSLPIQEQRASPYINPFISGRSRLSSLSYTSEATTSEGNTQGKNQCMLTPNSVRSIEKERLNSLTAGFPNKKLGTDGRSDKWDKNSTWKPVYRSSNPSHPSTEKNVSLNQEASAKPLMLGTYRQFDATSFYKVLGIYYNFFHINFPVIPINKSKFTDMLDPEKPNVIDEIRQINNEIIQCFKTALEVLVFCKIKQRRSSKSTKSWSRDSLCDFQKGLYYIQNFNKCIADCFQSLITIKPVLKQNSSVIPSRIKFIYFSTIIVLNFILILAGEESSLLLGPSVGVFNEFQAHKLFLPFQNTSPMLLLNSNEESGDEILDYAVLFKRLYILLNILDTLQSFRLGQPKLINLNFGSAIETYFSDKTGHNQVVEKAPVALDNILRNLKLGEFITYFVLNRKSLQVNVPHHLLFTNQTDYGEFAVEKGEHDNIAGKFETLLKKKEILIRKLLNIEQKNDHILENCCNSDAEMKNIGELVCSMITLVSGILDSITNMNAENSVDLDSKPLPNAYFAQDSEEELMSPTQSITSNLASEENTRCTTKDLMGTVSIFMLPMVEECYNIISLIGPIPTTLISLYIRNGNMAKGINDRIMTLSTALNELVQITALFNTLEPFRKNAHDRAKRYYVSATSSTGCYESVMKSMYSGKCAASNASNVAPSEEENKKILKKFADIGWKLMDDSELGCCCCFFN
Method in brief: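 Bound GST-tagged yeast transcription factors, applied at about 100-200 nM to double-stranded universal all-10-mer Agilent arrays, were detected with fluorescent anti-GST. Scans were normalised with masliner. A modified Wilcoxon-Mann-Whitney statistic, the E-score, was assigned to each ungapped eight-base word pooled with its reverse complement by the Universal PBM Analysis Suite.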

Compared with CTTAAGCC, CAGAGCAG is higher in “PBM E-score” value: -0.0683 for the first, -0.0586 for the second.

First: ACAAGAAT
Second: AATTGTAC
The “PBM E-score” value of the first is lower: 0.266 for the first, 0.337 for the second.

Going from ACGGCCCG to ATTACGAC, the “PBM E-score” value rises from -0.218 to 0.252.

Going from GAGTCCCA to AGTTAGGG, the “PBM E-score” value rises from -0.138 to -0.137.

First: AAACTTAA
Second: CCCGTTCC
The “PBM E-score” value of the first is higher: 0.259 for the first, -0.0733 for the second.

Going from AATCTTCC to GAGATTCC, the “PBM E-score” value falls from 0.411 to -0.0679.

Going from AGAAGTCT to ATGTTAGG, the “PBM E-score” value rises from -0.0489 to -0.00048.

First: ATCTAATG
Second: CCATTAGA
The “PBM E-score” value of the first is higher: 0.105 for the first, -0.14 for the second.

Going from AGAACACC to CACAAACA, the “PBM E-score” value rises from 0.0509 to 0.0559.

Compared with CTACATTA, ACACAAGA is higher in “PBM E-score” value: 0.0958 for the first, 0.135 for the second.

Compared with CTCGAATC, CCCGGGCA is lower in “PBM E-score” value: -0.0751 for the first, -0.0968 for the second.

First: AGACCGGG
Second: ACGCAAGG
The “PBM E-score” value of the first is lower: -0.086 for the first, -0.0439 for the second.

Going from CATGTCCG to AGCGCTAG, the “PBM E-score” value rises from -0.287 to -0.101.

Compared with CTACCTCA, CCTTCAGA is higher in “PBM E-score” value: -0.232 for the first, -0.0455 for the second.

Compared with CCGGACGA, CACACGCG is higher in “PBM E-score” value: -0.105 for the first, -0.0675 for the second.

Going from AACAAAAC to ACCGACTG, the “PBM E-score” value falls from 0.171 to -0.141.

Going from ATAACAGA to CAGTAGGA, the “PBM E-score” value falls from 0.113 to -0.0741.

First: CACCGGTC
Second: AGGGTTGA
The “PBM E-score” value of the first is lower: -0.393 for the first, -0.0655 for the second.

First: AAATCCTT
Second: TACCGGCA
The “PBM E-score” value of the first is higher: 0.0822 for the first, -0.203 for the second.

Compared with AGAACAAC, CGACACTA is lower in “PBM E-score” value: 0.0473 for the first, -0.0325 for the second.

Going from CATTTATA to GCCGTGGA, the “PBM E-score” value falls from 0.19 to -0.133.

Going from AAGCCCTT to AGGGGACG, the “PBM E-score” value falls from -0.252 to -0.301.

Compared with CATACCCA, CTGGTTCA is lower in “PBM E-score” value: 0.0973 for the first, -0.0931 for the second.

First: AAAAAGTG
Second: GTGTACGA
The “PBM E-score” value of the first is higher: 0.145 for the first, 0.108 for the second.

Compared with ACAAGCAC, ATAGTGAT is higher in “PBM E-score” value: -0.0334 for the first, 0.153 for the second.

Compared with CCTGAAAA, GCCCAGAC is lower in “PBM E-score” value: -0.035 for the first, -0.403 for the second.

First: CCGGTCGC
Second: AATAAGTA
The “PBM E-score” value of the first is lower: -0.176 for the first, 0.268 for the second.

First: AGTCCAAC
Second: GGGGTTCA
The “PBM E-score” value of the first is lower: -0.12 for the first, -0.111 for the second.

Going from ATCTTTCA to AGTCTTGC, the “PBM E-score” value falls from 0.0283 to -0.106.

Going from AGATTTGA to GCGCCCTA, the “PBM E-score” value falls from 0.141 to -0.269.

Going from AATAGGAG to GACGCAGC, the “PBM E-score” value rises from -0.253 to -0.18.

Compared with TAGAAAGA, ACTAGGAG is lower in “PBM E-score” value: -0.0722 for the first, -0.098 for the second.

First: AGAAGCGC
Second: AATTGAAG
The “PBM E-score” value of the first is lower: 0.0785 for the first, 0.0866 for the second.

First: ACTCTTAC
Second: CGGTCCGA
The “PBM E-score” value of the first is higher: 0.192 for the first, -0.179 for the second.

Going from AAGTGTAG to ATTTCAAA, the “PBM E-score” value rises from 0.173 to 0.261.

Compared with CCTCCGCC, GGTGGGAA is higher in “PBM E-score” value: -0.17 for the first, 0.0106 for the second.

Going from AATAGCTG to CACGCGCA, the “PBM E-score” value falls from 0.143 to -0.155.

First: CGAGATGC
Second: ATCCTTGA
The “PBM E-score” value of the first is lower: -0.0539 for the first, -0.0476 for the second.

Going from ATATCAGG to AATTTCCG, the “PBM E-score” value rises from 0.134 to 0.325.

Compared with GGGACCCA, ACCCTCAA is higher in “PBM E-score” value: -0.31 for the first, -0.0511 for the second.

Compared with ATTGTCTC, TACTGTAA is higher in “PBM E-score” value: 0.0961 for the first, 0.184 for the second.

Going from CGCCATGA to TGAAACCA, the “PBM E-score” value rises from -0.0897 to 0.174.

Going from CAACTCGA to CTATAGTA, the “PBM E-score” value rises from -0.0402 to 0.225.

Compared with AGTAGGCG, ACGACTGA is higher in “PBM E-score” value: -0.0436 for the first, 0.0854 for the second.

First: CTCAAGCC
Second: CGGTGGAG
The “PBM E-score” value of the first is lower: -0.281 for the first, -0.182 for the second.

Going from CGGCCGAA to GAGAGAGC, the “PBM E-score” value falls from -0.148 to -0.202.

Compared with AGCCTTAT, GACGGACA is higher in “PBM E-score” value: -0.0243 for the first, -0.00901 for the second.

Compared with GGGATCAA, ATTATTTC is higher in “PBM E-score” value: 0.242 for the first, 0.332 for the second.

First: AAGTAATT
Second: AGGCCGTG
The “PBM E-score” value of the first is higher: 0.331 for the first, -0.048 for the second.

Compared with CACAACGC, CCTCCCAG is lower in “PBM E-score” value: -0.133 for the first, -0.356 for the second.

Compared with AGTAGCTA, CTATCCAG is lower in “PBM E-score” value: 0.17 for the first, 0.062 for the second.

First: GAATGCGA
Second: GTTTCGGA
The “PBM E-score” value of the first is lower: 0.0817 for the first, 0.123 for the second.

First: GGTAGCAC
Second: AGCATACA
The “PBM E-score” value of the first is lower: -0.289 for the first, 0.163 for the second.

Going from CATGCGCC to AATTGCAA, the “PBM E-score” value rises from -0.0898 to 0.177.

Going from CCCAGCGC to AATTGATG, the “PBM E-score” value rises from -0.256 to 0.309.

Compared with ATGACGTC, AACAGGTT is higher in “PBM E-score” value: -0.0537 for the first, -0.00908 for the second.

Going from CAATCAGC to AGTTCATG, the “PBM E-score” value rises from -0.0856 to 0.208.

First: AGGAGAAT
Second: ACTGCCAA
The “PBM E-score” value of the first is higher: 0.134 for the first, 0.013 for the second.

Going from AGTTGATC to AGAATATC, the “PBM E-score” value falls from 0.271 to 0.0705.

Compared with ACGAACGA, AAGGTCTC is lower in “PBM E-score” value: -0.0121 for the first, -0.0822 for the second.

Going from ATCTAAAC to GCAACGAA, the “PBM E-score” value rises from -0.0292 to 0.169.

First: AACCCCTG
Second: TTCGCAAA
The “PBM E-score” value of the first is lower: -0.328 for the first, 0.225 for the second.

Compared with AGACGTGA, CCGATAGG is higher in “PBM E-score” value: -0.0528 for the first, -0.0168 for the second.

First: AACTGAGC
Second: ATCAATGG
The “PBM E-score” value of the first is lower: -0.123 for the first, 0.0453 for the second.

Going from CGTCATGC to GTTTGTGA, the “PBM E-score” value rises from -0.168 to -0.00211.

First: AGACATGG
Second: CTTCGTAC
The “PBM E-score” value of the first is higher: -0.0858 for the first, -0.103 for the second.

Compared with GAATCCGA, GATGTGGA is higher in “PBM E-score” value: -0.108 for the first, 0.193 for the second.

First: AGGTGAAC
Second: ACCTAACT
The “PBM E-score” value of the first is lower: -0.0473 for the first, 0.152 for the second.

Going from CTACAAAC to ATCATTCC, the “PBM E-score” value rises from 0.152 to 0.203.

Compared with CCTCAACG, GACCCCCA is lower in “PBM E-score” value: -0.146 for the first, -0.428 for the second.

First: CTAGCCAG
Second: AAGCACAA
The “PBM E-score” value of the first is lower: -0.145 for the first, 0.237 for the second.

Compared with CAGCATTA, AATCTCGC is higher in “PBM E-score” value: -0.059 for the first, 0.167 for the second.

First: AACTTTTG
Second: GGCTATAC
The “PBM E-score” value of the first is higher: 0.084 for the first, -0.115 for the second.

First: AAGGAGAG
Second: GCAATTAA
The “PBM E-score” value of the first is lower: -0.212 for the first, 0.138 for the second.

Compared with ACGTGATC, ATGTTCGG is lower in “PBM E-score” value: 0.0816 for the first, -0.00221 for the second.

First: CAAACATA
Second: AGACCAAA
The “PBM E-score” value of the first is higher: 0.0885 for the first, 0.0316 for the second.

First: CTATACTA
Second: AACAGTTG
The “PBM E-score” value of the first is higher: 0.0424 for the first, -0.0235 for the second.

First: ACCCGCCT
Second: ATTAGCGC
The “PBM E-score” value of the first is lower: -0.178 for the first, 0.0942 for the second.

Going from AAGGACTC to AAACGTAG, the “PBM E-score” value rises from -0.139 to -0.0105.

First: CGGAAACG
Second: AGTGAGGG
The “PBM E-score” value of the first is higher: -0.0471 for the first, -0.273 for the second.

Compared with CTCCAGTC, ACCTTTTG is higher in “PBM E-score” value: -0.134 for the first, -0.0505 for the second.

First: ACGGCATA
Second: ATCCACTC
The “PBM E-score” value of the first is lower: 0.124 for the first, 0.215 for the second.

Going from TCGAGCCA to CCTGGTTA, the “PBM E-score” value rises from -0.142 to -0.0245.

First: ATATCCGG
Second: ACAAATTG
The “PBM E-score” value of the first is higher: 0.164 for the first, 0.0817 for the second.

Going from TCTCAGCA to GTACGCGA, the “PBM E-score” value rises from -0.128 to -0.106.

Going from GCTATCAC to TGGCCACA, the “PBM E-score” value falls from 0.0018 to -0.0383.

Source: the supplement of paper PMC3334620
